From the supplement of paper PMC10126150
Values marked as one replicate rest on one cluster of the flow cell; about a third of the high ones do not repeat.

Test system: ATP
Assay: switch fluorescence ratio, 500 uM ATP over buffer (Cy3 cluster intensity, sum of 5 cycles each) (fold (ratio)); higher = stronger signal-on switching upon ATP binding; sequences stand for … in TCGTCGGCAGCGTCAGATGTGTATAAGAGACAGTTTTTTTTTTTTTTTTTTTTTTTTT…TC
Conditions: aptamer strand: ATP DNA aptamer (quencher-CACCTGGGGGAGTATTGCGGAGGAAGG + anchor), 100 nM annealed; ATP concentration: 500 uM; one replicate
Summary of the method: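 The fluorescence ratio divides summed target-cycle Cy3 intensity by summed buffer-cycle Cy3 intensity for each cluster and is averaged per switch-domain sequence. Cy3-labelled switching-strand clusters on a modified Illumina MiSeq flow-cell were annealed to 100 nM quencher-labelled ATP aptamer, then imaged in selection buffer and again after 15 min with 500 uM ATP at 22 °C. Five such cycles were run, with NaOH stripping and re-annealing between them, and clusters outside 100-1000 RFU were excluded.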
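Note: ATP exposure 15 min at 22 °C before imaging.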

Sequence | switch fluorescence ratio
ATAAGAGGGA | 0.989
TTGGGTCGAG | 0.967
TAACCCCTT | 1.07
GGCGTCAAAC | 0.991
TTTACCCGTT | 1
GCCTTTTGAA | 0.956
CAGGACTTGA | 0.938
TTTCAGTCCG | 1.2
TTTAGACCGT | 0.962
TTCATATCAG | 0.964
GGATGTCAAC | 1.03
ATTACCTGAA | 1.03
AACCGTGGT | 1.02
TTCATGAGGC | 1.05
CTGGGGAGAT | 0.998
TTCGCCGGAC | 1.04
TGACCATCTG | 0.979
ATTGTATAT | 0.957
GGCTTCCATC | 1.03
GACTCTCCCA | 0.993
GATTTAGTCG | 1.01
TAGCCGCACC | 2.91
TTAGTGGGCA | 1.02

Sequence | switch fluorescence ratio
GCGGTGTCAA | 0.996
TCGAGCGCAG | 1.25
CATCTTATG | 1.05
GCGGGGCACC | 0.991
GATGTAAATG | 0.973
GGGATACAGT | 1.03
TCGCTGTTAC | 4.24
GGTAGCTTAT | 0.937
TAACGATCAT | 0.995
TCAATGCTGA | 1.01
CAACAAAGG | 0.981
GGTGGTAATA | 0.962
TGGCTTATGT | 1.01
AGCGCCCATG | 1.01
AACTGTAGTG | 1.02
AGGTACCTAA | 1.01
ACGGCGCGGG | 1.28
CGGGACATTA | 0.987
CCCCTGTTCT | 0.982
TACTGCTACC | 1.4
TTATGCGAGT | 0.994
CCCAAAGTGT | 1.1
CCAAATGAAC | 1.03

Sequence | switch fluorescence ratio
GAACTTTTCC | 1.45
CATTCAATGG | 1.07
TTAAATGATA | 1.03
TTTGTACGTT | 1.04
CTGAGAACGT | 1.03
CCTTGGGGCG | 1.07
AGTCTTGGCC | 0.983
TTCGCTCAA | 0.995
GAGGGCAGA | 1.03
ATTCGTGGCT | 0.961
GTGAATTAGG | 1.03
GAGGGCTATG | 1.03
CGTTACATTT | 0.959
GACCTGAGGA | 1.06
TCGGAAATTC | 1.04
ATTCCGGTAA | 1.61
GTGCGCTCCG | 1.04
GGTTGGCACA | 1.01
GCATATGGAA | 1.02
GCGCGGGACC | 1.08
TGTCCACATA | 1.08
ACCCGCACGG | 1.49
ACGTCAGGGC | 1.09

Sequence | switch fluorescence ratio
GCACTAGGTG | 1.4
CATACTGTTC | 0.998
AGCGAGGTTC | 1.02
GTGAAGGGC | 0.961
GGTTGGAGAG | 0.966
GATGCTGAGG | 1.02
ACAAAGCACA | 1.26
CCAGGGATCC | 1.1
TGACAGGTAC | 1.18
TGGGCCGACG | 1.06
TTGTCAGCAT | 1.67
ACGATCTGTA | 1
ATTTAGTATG | 0.954
GGTCAAGTCG | 0.955
TCAGGTCAGG | 1.06
ATGCCCGGTG | 1.02
GTGATCTACG | 1.02
CTTTCACTTC | 1
TTAAGAGTGG | 1.01
AAGAGCCTTT | 1
GTTCAATGCG | 0.952
CTTTCATAA | 1.04
CTATAAGGCG | 0.982

Sequence | switch fluorescence ratio
ACCGGGAGGG | 1.05
TCACCGACAA | 3.04
TAGGGGCTGC | 0.952
TCGTCATATG | 0.997
CATGATTAAG | 1.02
TGTAAGGTCA | 0.973
CTAACATGAG | 1.07
TATGGTTCAC | 1.01
ATAGTAGGAA | 0.981
TTCTAGAAG | 0.948
GACACATCA | 1.06
ACGGGGTCTG | 0.987
TGGCAAATTT | 1
AGGTGCCTAC | 1.03
CCTAGTAATT | 1.13
GGATGGTTAA | 0.965
GGGACCGCGT | 1
GATAGCGCGA | 1.06
AAACACTATC | 1.14
GAAACGTAT | 1.19
TAAGTTCGCG | 0.994
AGATAAGAAG | 0.983
TTCACGACTC | 1.05

Sequence | switch fluorescence ratio
GATTATCAAA | 0.996
TGCGTTTTGT | 1.02
CTCATATCGG | 1.03
GGGGAGTAAT | 1.03
TAAGCCTGG | 1.02
TTCCCAAGGG | 1.6
TGGGGTAGT | 0.982
CCAGCCCCCC | 1.13
AATGGTTAAT | 0.99
TGATAGACGG | 0.994
TCGGGGAACC | 0.992
AGAATCAAGG | 0.993
AGTTGTCCTT | 0.986
CTAGAGAATT | 1.01
CCATAGTTAG | 1.08
ATAGATGGAT | 1.1
TTCACAACAA | 1.06
AATTTCACGA | 1.05
TGCCTGTTAT | 1.19
ATTGACCCTT | 1.06
TATCTGCGCA | 1.11
CAGTATCCCT | 1.04
TTTGTCTGAA | 1.01

Sequence | switch fluorescence ratio
TGTTGTT | 1
TATGTCGCTG | 1.01
GGTTTATGCC | 0.923
GGGACAAAGA | 0.978
TAATCCAAGC | 1.01
ATACATGGT | 0.951
TTAGCTCAAC | 0.995
TTTACCTCAC | 1.5
GGAAGGGTAC | 1.02
GCGTAACTT | 0.991
TAGAATTCAA | 0.969
TGCTTCCGGC | 1.06
ATGTTACAT | 1.03
GGTTCATGTT | 0.983
CCATGTCGCG | 1.05
GGGCTGTCAG | 0.995
TTCGTCGAAC | 1.21
CGCCCGTTTC | 1.04
CCGTAACTTA | 1.27
